Laboratory results: the supplement of paper PMC12632987
Over roughly 2,300 sequences, “median log2 fold change of GCK-ALFA target abundance (FLAG IP / Myc IP barcode read proportion)” has its median near 0.095; the lowest 2% begin near -0.47. The list shows a part of the results.

B1: LC3A_28_729 (protein)
chain: SPLEKSLEAALAEAEAAAAAGKPVVIEITVPGDATQEDIDRLIEALERIAEILAGLKNQTIIINVESGVKQEHIDRIADAAEEIEKKYPNVTVIIALDEE
B2: LC3A_28_1191 (protein)
chain: SLAEESIKSLEEQAKKALESGEPTVLEVNVPSSFTQEDIESLNKAIKEQAEKLKSIPSVTIVINVESGVPQEHIVSLAKTGDEIEEKYPNVTVIIALDED
B3: LC3A_free_39_2263 (protein)
chain: SAAERAAALAALRALAAKTSPEVQAAVLRLGELLKDDPELLKRLREALEKAIAKGPEVVAVFGAEAAEAVERIEAGEPREKAAEEMLKLIENAIEIEEID
B4: LC3A_45_2005 (protein)
chain: MWKITVDLLGKPEVVARAVAAIEAVAAAFSKESGKKVTVDTAEAREALAAEQDAPEVYVTVEIYVDGDEADANALIQAIDKVHEEVGPELASIISREKVP
B5: LC3A_28_1222 (protein)
chain: AAAEAQIAAARAQADAALAAGEEALITVNIGGDTTVEDAERIMDALEAIVARAAGLPAISIVVDVDGDVSQEVIDTIAERGEAIEARFPNVTVIIALDEE
B6: LC3A_132_265 (protein)
chain: SEELLKEALEELKEIVDKIVEALEAGKDPWPYIVELEKKFEEYAKKLSLEETEELAEEVIKYFEERAKERLDPNNKEAIRVLEIIEMLFEGVLIEKELEE
B7: LC3A_free_8_2440 (protein)
chain: DRQEFTNKVSDILDELEEEIEKIGKKHGLDRSTILELQLIVGSIIMEVYLHSDEDKETIIKIAKEGLKELEEEVKSLPEEFQKEVTKAIEKAKKEIEALL
B8: LC3A_free_39_2246 (protein)
chain: MEERMKEALKRAEELAKTLSPEAAKALKELVELLKGNPEALEVVNEGVERLMKEGGDVLAFLKEAVKLVKEMQAEGKSWEEIVKELKELVEDFLNLIPLD
B9: LC3A_3_1383 (protein)
chain: MEEEIKKLLEELKKAGKSEETIKAVKEALELLKERGYEEALKTFIEEVRKLIDFPDETLLALAEDVLNFLKTNDVSEEEATKKIKEIATVYRNELEIEEL
B10: LC3A_28_804 (protein)
chain: SPVRENAERAREEALAQIAAGEPVFVEINIPKDATEEEIEYVTEVIREMAEAAKAAGAERLDVVVDVEQNERAVTAISETEDELRAAGLPVNVVIALEEP
B11: LC3A_28_980 (protein)
chain: NELEKELEKKLKEAKEAAKAKEPAVITIKVKGTTNEEEAEKIIKTLEEIAEILKDIEGSAIIIDIDKGVDPELVDRLIDKAEEIEKKYPKITVIIALDEE
B12: LC3A_28_1104 (protein)
chain: SALEKNLAAALAEVKEAAAKGEEVLVTINVGGDATEEDLELLKKTLKEMAEIAKDLPRLTVIIDLDGEGAEEKANIIGDFADELEKKYPNLTIIIALPED
B13: LC3A_3_1550 (protein)
chain: MDALRAATLAALRAAGHSPEVIAAAAALFDALAARGYDEAARVAAEEARALLHLPDELLLDFFTSVLAYVQTNDASEEELVKRIREEARTVRAEGEIEEL
B14: LC3A_28_860 (protein)
chain: SKTEESIEKARKELEEAKEKGEEVTIEITVTEDVTDEEVEKVIELIDLAAEYSKTVPGISVIIDIEGKLDPEKLQKILDRADEAIKKNPKLNVIFALDEE
B15: LC3A_141_362 (protein)
chain: AVKKKTYTYTATTYDEALKVAEEIGKEIKKFMEETGAEEVKVTVTITSYNEKTGEVTTETDTYTVTKENLDLFIEGLEIDLLSAFDKGADKIVVKVTIET
B16: LC3A_45_1981 (protein)
chain: MYLATVDVLVPRELAEEAYAAARAAADELEARYGDRVRVDRAALDESYAATKDEEDVYLRVEIYAPDKQLALDAADELVDRLEAALGDRVAAIISVEEVP
B17: LC3A_13_350 (protein)
chain: TVEIEVSTAEELREKVGAAIAAHPGETIRVTVTIENEEEADELAEAAKEVMREAAAAGNRLEITFVGPRELVNYAAVELGSFIFEHLDELDVDVHTEESP
B18: LC3A_127_206 (protein)
chain: KEKELLKKAEKLAEKAEEAVDKIPKEGEKAREEAIKLLEELAKLLKQIPSLKEALEDTEQAIKLLKETAKLSPAEREETIEQISQIISGILIEIESELLK
B19: LC3A_28_1204 (protein)
chain: SKTREAAERALEEAERLLEEGKEGVIVLKVEGEISEEETEYVIEALERIAELAAESGKISIILDIDGEVPEEHANKLIDKADELEEKYPNVNIIIALEER

These binders were tested against MAP1LC3A, Q9H492 (assay: median log2 fold change of GCK-ALFA target abundance (FLAG IP / Myc IP barcode read proportion) (log2 ratio); each designed protein is fused to an ALFA-tag nanobody in HEK293 cells to bring the named protein to FLAG-tagged glucokinase (GCK); Myc marks an untargeted standard; higher = target protein stabilised (more abundant)). Details: target protein: 3xFLAG-MCP-GCK-ALFA reporter; HEK293 landing pad (RPLP).
Outline: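 An ALFA-nanobody-fused binder library was recombined into HEK293 landing-pad cells and induced with 2 μg mL^−1 doxycycline. Cells were transfected with a plasmid expressing a FLAG-tagged target and a Myc-tagged standard. After 48 h, lysates underwent anti-FLAG and anti-Myc immunoprecipitation, and circular RNA barcodes were reverse transcribed, amplified and sequenced. Target abundance is the per-binder median log2 ratio of FLAG to Myc barcode read proportions. Barcodes needed ≥10^−7 proportion in both replicates, binders ≥3 barcodes per replicate, and a 10^−6 pseudocount was added; the two replicates were pooled.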

Binder	median log2 fold change
B1	0.197
B2	0.259
B3	0.523
B4	0.156
B5	0.00582
B6	-0.219
B7	-0.135
B8	0.061
B9	0.127
B10	-0.35
B11	-0.258
B12	-0.0529
B13	0.244
B14	0.289
B15	-0.96
B16	-0.0815
B17	0.141
B18	0.148
B19	-0.12
